Reference: PubChem BioAssay (Tox21)
Values joined by “and” are separate entries in the source; they are usually repeats but may differ in a detail not shown here. Equal values may be shown once. Inconclusive results, whose numbers are uncertain, are shown with a selection of clear calls. A potency beside an inconclusive call is a rough fit, not a confirmed value. Active and inactive are the calls of the source. Calls come from the whole dose curve; as a rule, active = well fitted cell-killing curve with a large enough effect in the repeat runs; inconclusive = weak or mixed curves, or effect the other way; inactive = flat fitted curve, though single readings scatter.

Experiment: qHTS RealTime-Glo MT Cell Viability Assay in HEK293 cells - 8 hour (AID 1224887); note: nearly all actives have a fitted effect of over 50% in size
Conditions: RealTime-Glo luminescence; series mostly up to 76.8 µM
Description: U.S. Tox21 Program National Center for Advancing Translational Sciences [NCATS] NIH Chemical Genomics Center [NCGC] U.S. Environmental Protection Agency [EPA] National Institutes of Environmental Health Sciences [NIEHS] National Toxicology Program [NTP] U.S. Food and Drug Administration [FDA] Tox21 Assay Overview: Measure of cell viability is critical in the cell-base assay. Analysis of cell viability is necessary for the characterization of cell responses to cytotoxic drugs and environmental stress. A RealTime-Glo MT Cell Viability Assay to monitor cell viability in real time of continues cell culture during 40 hours of compound treatment was used to screen Tox21 10K library compounds in Hek293 cells. The RealTime-Glo MT Cell Viability Assay is a nonlytic, homogeneous, bioluminescent method to measure cell viability in real time using a simple, plate-based method. The assay involves adding NanoLuc luciferase and a cell-permeant prosubstrate to cells in culture. Viable cells reduce the proprietary prosubstrate to generate a substrate for NanoLuc luciferase. This substrate diffuses from cells into the surrounding culture medium, where it is rapidly used by the NanoLuc Enzyme to produce a luminescent signal. The signal correlates with the number of viable cells, making the assay well suited for cytotoxicity studies.
Tox21 Assay Protocol Summary: The mixture of Hek293 cell suspension and reagents were dispensed at 600cells/6 ul/well in 1536-well tissue culture treated black solid bottom plates using a Multidrop dispenser. After the assay plates were incubated at a 37 C/5% CO2 incubator for 5 hours, 23 nL of compounds dissolved in DMSO, positive and negative controls was transferred to the assay plate by a pintool work station. The plates were incubated at 37 C for 40 hours. The luminescence intensity were measured at 0h, 8h, 16h, 24h, 32h and 40h time points using ViewLux plate reader during compound treatment.
Potency is the fitted concentration of half-maximal effect; tags give direction and shape of the fitted curve.

Row | SMILES | Potency
1 | BrC(Br)C(Br)(Br)Br | inconclusive: 43.9 µM [cytotoxic, partial curve]
2 | COP(=S)(OC)Oc1nc(Cl)c(Cl)cc1Cl | inconclusive: 61.6 µM [cytotoxic, single point]
3 | NC(=O)C(Cl)Cl | inactive
4 | CCC1(c2ccccc2)C(=O)N=C(O)NC1=O (stereo not given) | inactive
5 | CC(Cc1ccccc1)NCCn1cnc2c1c(=O)n(C)c(=O)n2C (stereo not given) | active: 24.2 µM
6 | OC(O)C(Cl)(Cl)Cl | inactive
7 | C=CCOC(Cn1ccnc1)c1ccc(Cl)cc1Cl (stereo not given) | inconclusive: 43.8 µM [cytotoxic, partial curve] and inconclusive: 43.6 µM [cytotoxic, partial curve]
8 | CCOC(=O)C1(c2ccccc2)CCN(CCC(C#N)(c2ccccc2)c2ccccc2)CC1 | inactive
9 | CCCN(CCC)c1c([N+](=O)[O-])cc(C(C)C)cc1[N+](=O)[O-] | inconclusive: 21.4 µM [cytotoxic, full curve]
10 | O=C(Cl)OCCOCCOC(=O)Cl | inactive
11 | CN(C)c1ccc(N=Nc2ccccc2)cc1 | inconclusive: 17.4 µM [cytotoxic, full curve]
12 | C[Si](Cn1cncn1)(c1ccc(F)cc1)c1ccc(F)cc1 | inconclusive: 45.1 µM [cytotoxic, partial curve] and inconclusive: 19.5 µM [cytotoxic, partial curve]
13 | CCCN(CCCl)c1c([N+](=O)[O-])cc(C(F)(F)F)cc1[N+](=O)[O-] | active: 38.9 µM
14 | Oc1ccc([C@H]2CNCc3c2ccc(O)c3O)cc1O | inconclusive: 9.52 µM [cytotoxic, partial curve]
15 | CCCCN(CC)c1c([N+](=O)[O-])cc(C(F)(F)F)cc1[N+](=O)[O-] | active: 17.7 µM and inconclusive: 11 µM [cytotoxic, partial curve]
16 | c1ccc(N=NNc2ccccc2)cc1 | active: 50.7 µM and inconclusive: 30.9 µM [cytotoxic, partial curve, poor fit]
17 | CN(C)c1ccc(N(C)C)cc1 | active: 34.8 µM
18 | O=C1NCN(c2ccccc2)C12CCN(CC1COc3ccccc3O1)CC2 (stereo not given) | inconclusive: 26.8 µM [cytotoxic, single point]
19 | O=C(O)C1(c2ccc3c(c2)OC[C@H](Cc2ccc(-c4ccccc4)cc2)[C@H]3O)CCCC1 | inconclusive: 54.9 µM [cytotoxic, single point]
20 | CCC(OC(C)=O)C(CC(C)NC)(c1ccccc1)c1ccccc1 (stereo not given) | inconclusive: 62.2 µM [cytotoxic, partial curve]

Row | SMILES | Potency
21 | CC(C)Nc1ccc(Nc2ccccc2)cc1 | active: 15.4 µM and active: 17.4 µM
22 | CCCCCCCCC(=O)NCc1ccc(O)c(OC)c1 | inconclusive: 13.8 µM [cytotoxic, partial curve] and inconclusive: 23.9 µM [cytotoxic, single point]
23 | CS(=O)(=O)c1cc(C(F)(F)F)ccc1C(=O)c1cnoc1C1CC1 | inactive
24 | Cc1cc(C(C)(C)c2ccc(O)c(C)c2)ccc1O | active: 23.4 µM
25 | CCCCCCCCCCCCCCCCCC(=O)O | inconclusive: 43.3 µM [cytotoxic, partial curve]
26 | O=[N+]([O-])C(Br)Br | inconclusive: 55 µM [cytotoxic, partial curve]
27 | Clc1cc(C(Cl)(Cl)Cl)cnc1Cl | inconclusive: 49 µM [cytotoxic, partial curve, poor fit]
28 | CCOc1cc(Oc2ccc(C(F)(F)F)cc2Cl)ccc1[N+](=O)[O-] | inconclusive: 39.3 µM [cytotoxic, partial curve] and inconclusive: 13.8 µM [cytotoxic, full curve]
29 | Cc1cc(C)c(C(=O)P(=O)(c2ccccc2)c2ccccc2)c(C)c1 | active: 43.6 µM
30 | CC1COC(Cn2cncn2)(c2ccc(Oc3ccc(Cl)cc3)cc2Cl)O1 (stereo not given) | active: 21.9 µM
31 | C[C@]12C/C(=C/O)C(=O)C[C@@H]1CC[C@@H]1[C@@H]2CC[C@@]2(C)[C@H]1CC[C@]2(C)O | inconclusive: 49.4 µM [cytotoxic, single point]
32 | C=C(C)C#N | inconclusive: 24.5 µM [cytotoxic, partial curve]
33 | CC(=O)OC1(c2ccccc2)CCN(CCc2ccccc2)CC1 | inconclusive: 44.7 µM [cytotoxic, partial curve]
34 | COc1cccc2c1C(=O)c1c(O)c3c(c(O)c1C2=O)C[C@@](O)(C(=O)CO)CC3OC1CC(N2CCOC(OC)C2)C(O)C(C)O1 (stereo not given in full) | inconclusive: 8.49 µM [cytotoxic, partial curve, poor fit]
35 | C[C@]12CCC(=O)C(O)=C1CC[C@@H]1[C@@H]2CC[C@]2(C)C(=O)CC[C@@H]12 | inactive
36 | Nc1ccc(N)cc1 | inconclusive: 38.9 µM [cytotoxic, partial curve, poor fit] and inconclusive: 19 µM [cytotoxic, partial curve]
37 | Clc1ccc(C(Cl)(Cl)Cl)cc1 | inactive
38 | CCOC(=O)CBr | inconclusive: 39.1 µM [cytotoxic, partial curve]
39 | C[C@H]1C(=O)O[C@@H]2CCN3CC=C(COC(=O)[C@](C)(O)[C@]1(C)O)[C@H]23 | inactive
40 | Oc1ccccc1-c1ccccc1 | inconclusive: 61.6 µM [cytotoxic, single point]
